Experimental data: PubChem BioAssay AID624417 (National Center for Advancing Translational Sciences (NCATS), 2012)
In all, about 410,000 compounds went through this assay and about 6,400 (1.6%) were called active. The shares of active, inactive and inconclusive entries below differ from those in the screen. The call rests on the fitted dose curve; in most records, active means well fitted inhibition curve with a large enough effect; inconclusive means small, poorly fitted or top-dose-only effect; inactive means no such curve, though single readings can be large or run the other way. Potencies of inconclusive entries are left out as doubtful fits.

Target: Glucagon-like peptide 1 receptor (Homo sapiens) (UniProt P43220)
Assay: qHTS of GLP-1 Receptor Inverse Agonists (Inhibition Mode); further: nearly all actives have a fitted effect of over 55% in size
Settings: HEK293 GLP-1R CRE-luciferase, luminescence, 24 h, GLP-1R form is constitutively active; activity change, negative = inhibition: at 38.3 µM (top of the series) unless noted
Method in brief: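 Inverse agonism was detected as reduced cAMP-driven luciferase luminescence after 24 h compound treatment. The cells were HEK293 clones expressing constitutively active human GLP-1R with the reporter. Reporter-only and GPR119 cell lines served as counterscreen controls.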
On the % scale 0 is the no-effect control and ±100 the full control effect; potency means the concentration at half of the fitted maximal effect; tags describe the fitted curve by direction and shape.

Sequence of UniProt P43220 (P43220 whole entry, looked up): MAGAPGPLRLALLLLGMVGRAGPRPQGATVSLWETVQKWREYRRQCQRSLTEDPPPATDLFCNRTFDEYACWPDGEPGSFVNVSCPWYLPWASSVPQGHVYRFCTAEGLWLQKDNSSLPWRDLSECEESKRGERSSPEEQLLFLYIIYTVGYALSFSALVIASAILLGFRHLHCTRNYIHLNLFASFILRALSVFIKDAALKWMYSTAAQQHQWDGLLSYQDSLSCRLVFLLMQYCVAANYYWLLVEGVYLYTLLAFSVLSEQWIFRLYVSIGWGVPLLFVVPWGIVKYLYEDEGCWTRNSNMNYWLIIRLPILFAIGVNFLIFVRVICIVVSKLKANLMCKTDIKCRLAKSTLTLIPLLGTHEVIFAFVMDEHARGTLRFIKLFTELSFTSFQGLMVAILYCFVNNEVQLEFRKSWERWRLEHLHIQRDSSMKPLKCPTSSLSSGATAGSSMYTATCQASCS

SMILES	Potency	activity change, negative = inhibition
Cc1cc(Cl)nc(Cl)c1C(=O)NC(=O)NCCC(C)C	inconclusive [inhibitor, full curve, poor fit]	–
CCn1nc(C(=O)Nc2ccccc2N2CCCC2)c2ccccc2c1=O	inconclusive [inhibitor, single point]	–
CCN1CCN(CCNC(=O)c2ccc(/C=C3/Sc4ccccc4N(Cc4ccccc4C)C3=O)cc2)CC1	inconclusive [inhibitor, partial curve, poor fit]	–
O=C(N/N=C/c1ccco1)c1ccc(OCc2ccccc2)cc1	–	inactive: -27.2%
Cc1cc(-c2ccc(C)c(S(=O)(=O)N3c4ccccc4CC3C)c2)on1 (stereo unspecified)	inconclusive [inhibitor, partial curve, poor fit]	–
O=C(c1ccco1)N1CCN(C(=S)Nc2ccc(Br)cc2Cl)CC1	inconclusive [inhibitor, single point]	–
CCc1nnc(NC(=S)Nc2ccccc2)s1	inconclusive [inhibitor, full curve, poor fit]	–
CCCCOC(=O)C1CN(c2ccccc2)N=C1C(C)=O (stereo unspecified)	inconclusive [inhibitor, single point]	–
CC(C)CC(=O)NC(=S)Nc1nc(-c2ccc(Cl)cc2)cs1	–	inactive: 11.1%
CCN(CC)c1ccc(NS(=O)(=O)c2ccc(-c3coc(C)n3)cc2)c(C)c1	inconclusive [inhibitor, partial curve, poor fit]	–
Cc1cc(SCC(=O)Nc2cccnc2Cl)nc2ccccc12	–	inactive: 1.59% [at 0.307 µM]
CCN(CC)c1cc(C)c2cc(NC(=O)/C=C/c3ccccc3OC(C)C)ccc2n1	inconclusive [inhibitor, partial curve]	–
CCn1c(COc2ccc(C)cc2)nnc1SCc1ccc(C#N)cc1	inconclusive [inhibitor, single point]	–
COc1ccc(/C=C/C(=O)Nc2ccc3nc(N4CCCCC4)cc(C)c3c2)cc1OC	inconclusive [inhibitor, partial curve, poor fit]	–
CCCCCn1c(CN2CCN(C)CC2)nc2c1c(=O)n(C)c(=O)n2C	–	inactive: -5.53%
COc1cc(NC(=O)c2ccc(-n3cnc4cccnc43)cc2)cc(OC)c1	–	inactive: -29.5%
CN(C)C=Nc1ccc([N+](=O)[O-])c2ccccc12	inconclusive [inhibitor, single point]	–
CC(C(=O)N1CCCc2c1c(=O)oc1ccc(O)cc21)N1CCc2ccccc2C1 (stereo unspecified)	inconclusive [inhibitor, single point]	–
Cc1ccc(S(=O)(=O)N(CC(=O)Nc2ccc3c(c2)OCO3)c2ccc(C)c(Cl)c2)cc1	inconclusive [inhibitor, partial curve, poor fit]	–
O=C(NC1CC1)c1cc(-c2ccco2)nc2ccccc12	–	inactive: 8.21%
N#CC(c1ccc(F)cc1)c1ccc(C(=O)c2ccc(F)cc2)cc1 (stereo unspecified)	inconclusive [inhibitor, partial curve, poor fit]	–
C=C(CCC(=O)c1ccccc1)C(=O)c1ccccc1	inconclusive [inhibitor, single point]	–

SMILES	Potency	activity change, negative = inhibition
O=C(CN1C(=O)NC2(CCCCC2)C1=O)Nc1ccccc1N1CCCCC1	inconclusive [inhibitor, single point]	–
COc1cc(NC(=S)NCc2cccs2)cc(OC)c1	–	inactive: 8.97%
CCOC(=O)c1ccc(NC(=O)c2nn(CC)cc2Br)cc1	–	inactive: 3.54%
CCOC(=O)c1c(/N=C/N(C)C)sc(C)c1C	–	inactive: 120%
Fc1ccc(C2CCCN2Cc2nc(Cc3ccccc3)no2)cc1 (stereo unspecified)	inconclusive [inhibitor, single point]	–
CCOC(=O)c1sc(NC(=O)c2ccc(Cl)s2)cc1C	–	inactive: 2.32%
O=S(=O)(c1ccccc1)n1nc(-c2ccccc2)nc1NCc1ccco1	inconclusive [inhibitor, single point]	–
Cc1ccc(Nc2c(-c3ccccn3)nc3ccc(C)cn23)cc1	inconclusive [inhibitor, single point]	–
Cc1ccc(N=Nc2c(N)n(-c3ccccc3)[nH]c2=O)cc1	inconclusive [inhibitor, single point]	–
C[C@H]1CCC(=O)N([C@H](COc2ccccc2)Cc2ccccc2)CC1	inconclusive [inhibitor, partial curve, poor fit]	–
COc1ccc(CCC(=O)OC(C)C(=O)c2ccc(C)cc2)cc1 (stereo unspecified)	–	inactive: 17.3%
O=C(O)c1cccc(N/N=C/c2ccc(OC(F)(F)F)cc2)c1	inconclusive [inhibitor, full curve]	–
Cc1nc(C(=O)Nc2cccc(Cl)c2Cl)nn1-c1cc(OC(C)C)c(Cl)cc1Cl	inconclusive [inhibitor, partial curve]	–
CCCCc1nc2ccccc2n1CC(=O)N(COCC)c1c(C)cccc1CC	inconclusive [inhibitor, single point]	–
Cc1cc(C)cc(NC(=O)C2CCN(S(=O)(=O)c3ccc4c(c3)oc(=O)n4C)CC2)c1	–	inactive: 3.98%
O=C(CSc1nnc(COc2ccc(Cl)cc2)o1)N1CCCCC1	inconclusive [inhibitor, single point]	–
Cc1ccccc1-c1noc(-c2cc(-c3ccc(F)cc3)n[nH]2)n1	inconclusive [inhibitor, single point]	–
Cc1ccc(-c2cc(C(F)(F)F)nn2-c2ccc(S(N)(=O)=O)cc2)cc1	inconclusive [inhibitor, single point]	–
CC(C)(C)c1ccc(C(=O)N2CCC(C(=O)NC3CC3)CC2)cc1	–	inactive: 2.19%
Oc1ccc(N2CCN(c3ncnc4sc(-c5ccccc5)cc34)CC2)cc1	inconclusive [inhibitor, full curve, poor fit]	–
CSc1ccccc1C(=O)NC1CCCN(Cc2ccccc2F)C1 (stereo unspecified)	inconclusive [inhibitor, single point]	–
CSc1ncc(C(=O)Nc2cc(Cl)ccc2C)c(-c2ccccc2)n1	–	inactive: 7.38%

SMILES	Potency	activity change, negative = inhibition
O=C1SCC(c2ccc(Cl)cc2Cl)=NN1Cc1nnc(-c2ccccc2)o1	inconclusive [inhibitor, single point]	–
O=C(CN1CCN(S(=O)(=O)c2ccc(Cl)cc2)CC1)NCc1cccs1	inconclusive [inhibitor, single point]	–
CC(=O)N1CCCc2cc(S(=O)(=O)N3CCN(c4cccc(C(F)(F)F)c4)CC3)ccc21	inconclusive [inhibitor, single point]	–
O=C1N[C@@H](Cc2ccccc2)COC(=O)[C@@H](Cc2ccc(F)cc2)CC/C=C/C[C@H]1CC(=O)N(CCO)Cc1ccccc1	inconclusive [inhibitor, partial curve, poor fit]	–
COc1ccc(NC(=O)C(=O)NCCC2CCCCN2S(=O)(=O)c2cccs2)cc1 (stereo unspecified)	inconclusive [inhibitor, full curve]	–
CC1(C(=O)NS(=O)(=O)c2ccccc2)CCN1C(=O)Cc1ccc(-c2ccccc2)cc1 (stereo unspecified)	inconclusive [inhibitor, single point]	–
O=C(NC1=NCCS1)c1ccc(Cl)c(S(=O)(=O)N2CCCCCC2)c1	inconclusive [inhibitor, partial curve, poor fit]	–
CCOC(=O)c1ccc(NC(=S)NCc2ccco2)cc1	inconclusive [inhibitor, single point]	–
Cc1ccc(C)c(NC(=O)C(c2ccccc2)N2Cc3ccccc3C2=O)c1 (stereo unspecified)	–	inactive: 7.46%
COc1cccc(CN2C(=O)C(C)Oc3ccccc32)c1 (stereo unspecified)	inconclusive [inhibitor, partial curve, poor fit]	–
OC1CCCN(CC(O)COC(c2ccc(F)cc2)c2ccc(F)cc2)C1 (stereo unspecified)	inconclusive [inhibitor, partial curve, poor fit]	–
Cc1ccc(-c2oc3ccccc3c(=O)c2O)cc1	inconclusive [inhibitor, full curve]	–
O=C(NCCOc1nc(N2CCCCC2)nc(N2CCCCC2)n1)Nc1ccccc1	inconclusive [inhibitor, full curve]	–
O=C(CCC1N=C2c3ccccc3N=C(SCc3ccc(F)cc3)N2C1=O)NC1CCCCC1 (stereo unspecified)	inconclusive [inhibitor, full curve, poor fit]	–
Cc1cc(C)cc(-n2ccn(CC(=O)Nc3ccccc3F)c(=O)c2=O)c1	–	inactive: -2.5%
Cc1cc(C)c(C(=O)COc2cccnc2[N+](=O)[O-])cc1C	inconclusive [inhibitor, single point]	–
CCOc1ccc(-n2nc(CO)c(C(=O)NCc3cccc(OC)c3)n2)cc1	–	inactive: -18%
Cc1cc(C(=O)CN2C(=O)NC3(CCCc4ccccc43)C2=O)c(C)n1Cc1cccs1 (stereo unspecified)	inconclusive [inhibitor, single point]	–
CC(C)(C)C1CCC(C(=O)Nc2ccccc2)CC1 (stereo unspecified)	inconclusive [inhibitor, partial curve, poor fit]	–
CCN(CC)CCNCc1ccc(OCc2ccc(Cl)nc2)c(OC)c1	inconclusive [inhibitor, single point]	–
CN(C)c1ncc(CN2CCC(CO)(CCCc3ccccc3)CC2)s1	inconclusive [inhibitor, partial curve, poor fit]	–
CN(C)c1oc(-c2ccccc2[N+](=O)[O-])nc1C#N	inconclusive [inhibitor, single point]	–
